The full ranking holds about 16,000 sequences; the median of “Z-score” is about -0.37, and the highest 2% start at about 3.1. The list shows a part of the results.
System: RBM10 RRM1-ZnF-RRM2 (GST-tagged construct)
Assay: RNAcompete 7-mer binding Z-score; higher = stronger binding preference
How it was run: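 GST-tagged RBM10 constructs (20 pmol) and a designed pool of 241 399 RNAs up to 41 nt (1.5 nmol) were allowed to bind for 30 min at 4°C in 1 ml Hepes pH 7.8 buffer with glutathione Sepharose beads. After four 2-min washes at 4°C, bound RNA was identified by microarray hybridisation. Enrichment was scored per heptamer motif as a one-sided Z-score across the probes containing it.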

Compared with UCGAUAC, AGCCUAA is lower in “RNAcompete 7-mer binding Z-score” value: -0.46 for the first, -0.704 for the second.

First: UAGUCCG
Second: AUUGAGU
The “RNAcompete 7-mer binding Z-score” value of the first is lower: -0.508 for the first, 0.323 for the second.

Going from CGCAAAC to CCGCAGU, the “RNAcompete 7-mer binding Z-score” value rises from -0.588 to -0.533.

Going from AGUGAAA to CUCCAAC, the “RNAcompete 7-mer binding Z-score” value falls from 0.738 to -0.61.

Going from UAUAUCU to CCGGUUU, the “RNAcompete 7-mer binding Z-score” value rises from -0.588 to -0.53.

First: GAGCAGU
Second: AAUCGUA
The “RNAcompete 7-mer binding Z-score” value of the first is higher: 0.614 for the first, -0.205 for the second.

Compared with UACCAGC, UAGUUAC is higher in “RNAcompete 7-mer binding Z-score” value: -0.373 for the first, -0.198 for the second.

First: GAGGAGA
Second: GAGUAGG
The “RNAcompete 7-mer binding Z-score” value of the first is lower: 1.89 for the first, 3.6 for the second.

First: AGUUUUG
Second: GCUAGCG
The “RNAcompete 7-mer binding Z-score” value of the first is lower: -0.0707 for the first, -0.0233 for the second.

First: CGGAUUC
Second: UGGUGAG
The “RNAcompete 7-mer binding Z-score” value of the first is lower: -0.195 for the first, 2.71 for the second.

Compared with AGCUAGA, ACGUCAA is lower in “RNAcompete 7-mer binding Z-score” value: -0.224 for the first, -0.522 for the second.

Going from AACAUAA to CCGGUCA, the “RNAcompete 7-mer binding Z-score” value falls from -0.362 to -0.449.

Compared with UCUCGGC, CAGCCGU is higher in “RNAcompete 7-mer binding Z-score” value: -0.708 for the first, -0.701 for the second.

Going from CGGGGUU to GCCGAGU, the “RNAcompete 7-mer binding Z-score” value falls from 2.23 to -0.635.

First: UUUAGGA
Second: GCCAAGG
The “RNAcompete 7-mer binding Z-score” value of the first is lower: 0.348 for the first, 0.964 for the second.

Going from UGCCUUG to GUGAUCG, the “RNAcompete 7-mer binding Z-score” value rises from -0.868 to 0.439.

First: CGUAGCG
Second: AACGCGA
The “RNAcompete 7-mer binding Z-score” value of the first is higher: 0.232 for the first, -0.111 for the second.

First: UGCGGGC
Second: CGAAUGA
The “RNAcompete 7-mer binding Z-score” value of the first is higher: 1.07 for the first, -0.282 for the second.

Going from GUUAUUC to GUAAAAC, the “RNAcompete 7-mer binding Z-score” value rises from -0.581 to 0.304.

Going from ACCUAUA to UGAGGUG, the “RNAcompete 7-mer binding Z-score” value rises from -0.785 to 2.45.

First: GCAGGAA
Second: GGCGCGG
The “RNAcompete 7-mer binding Z-score” value of the first is higher: 2.07 for the first, 1.92 for the second.

Compared with AUCAAUG, UUGCUAC is lower in “RNAcompete 7-mer binding Z-score” value: 0.206 for the first, -0.719 for the second.

Going from GCGUUUC to CCAGAAU, the “RNAcompete 7-mer binding Z-score” value rises from -0.457 to -0.406.

Compared with AGACCCA, UUAGUCG is higher in “RNAcompete 7-mer binding Z-score” value: -1.11 for the first, -0.351 for the second.

Going from GUCCUGU to CUCAUGC, the “RNAcompete 7-mer binding Z-score” value falls from -0.417 to -0.948.

Compared with CAACCCU, CUACUUU is higher in “RNAcompete 7-mer binding Z-score” value: -0.908 for the first, -0.901 for the second.

Compared with UGCUCCC, CCCGUAA is higher in “RNAcompete 7-mer binding Z-score” value: -0.821 for the first, -0.592 for the second.

First: ACGCUGU
Second: AGUCAAC
The “RNAcompete 7-mer binding Z-score” value of the first is lower: -0.657 for the first, -0.0707 for the second.

Compared with UAUACCC, UGGGACG is higher in “RNAcompete 7-mer binding Z-score” value: -0.672 for the first, 2.27 for the second.

Going from CUUUUCU to CCGCCCG, the “RNAcompete 7-mer binding Z-score” value rises from -0.814 to -0.679.

Going from CCGGUUG to CAAAAUC, the “RNAcompete 7-mer binding Z-score” value falls from 0.224 to -0.537.

First: AGCCCUG
Second: GACUUGU
The “RNAcompete 7-mer binding Z-score” value of the first is lower: -0.846 for the first, -0.821 for the second.

First: GGGCUCA
Second: UAAUCGA
The “RNAcompete 7-mer binding Z-score” value of the first is higher: 0.556 for the first, -0.311 for the second.

First: GGUGCGG
Second: GCCUAUC
The “RNAcompete 7-mer binding Z-score” value of the first is higher: 2.6 for the first, -0.828 for the second.

First: CGGCGAU
Second: GUGGGAU
The “RNAcompete 7-mer binding Z-score” value of the first is lower: 0.348 for the first, 3.57 for the second.

First: GAUCUUU
Second: ACGAGGU
The “RNAcompete 7-mer binding Z-score” value of the first is lower: -0.77 for the first, 1.36 for the second.

Compared with AGAACCU, AAAUGGG is higher in “RNAcompete 7-mer binding Z-score” value: -1.06 for the first, 4.04 for the second.

Compared with AGACUUG, AGUGUGC is higher in “RNAcompete 7-mer binding Z-score” value: -0.635 for the first, 0.359 for the second.

Going from AGGUAUC to UCGCUGC, the “RNAcompete 7-mer binding Z-score” value falls from 0.0641 to -0.719.

Going from ACCUAGU to UGGAGAG, the “RNAcompete 7-mer binding Z-score” value rises from -0.577 to 2.12.

First: ACACCUG
Second: CAAUACC
The “RNAcompete 7-mer binding Z-score” value of the first is higher: -0.635 for the first, -0.65 for the second.

Going from GGCUCCG to CACACUG, the “RNAcompete 7-mer binding Z-score” value falls from -0.231 to -0.446.

Compared with CGUACCG, GGUGACA is higher in “RNAcompete 7-mer binding Z-score” value: -0.38 for the first, 2.07 for the second.

Compared with CCCACUA, AGGUAAC is higher in “RNAcompete 7-mer binding Z-score” value: -0.85 for the first, 0.942 for the second.

Compared with CAUGUAU, CCGGAAC is higher in “RNAcompete 7-mer binding Z-score” value: -0.522 for the first, -0.362 for the second.

First: UAAUUCU
Second: ACAACCU
The “RNAcompete 7-mer binding Z-score” value of the first is higher: -0.806 for the first, -0.956 for the second.

First: AUGUAUG
Second: GCAUUUC
The “RNAcompete 7-mer binding Z-score” value of the first is higher: 0.221 for the first, -0.799 for the second.

Going from AGAAGUG to AGAUCUC, the “RNAcompete 7-mer binding Z-score” value falls from 1.25 to -0.952.

First: GAAGAAA
Second: CUUUUAU
The “RNAcompete 7-mer binding Z-score” value of the first is higher: 0.796 for the first, -0.938 for the second.

First: ACCGGGC
Second: AAGUAUC
The “RNAcompete 7-mer binding Z-score” value of the first is higher: 0.304 for the first, -0.613 for the second.

First: UGCGAGG
Second: UAAAUAG
The “RNAcompete 7-mer binding Z-score” value of the first is higher: 2.01 for the first, 0.024 for the second.

First: GGGUCUG
Second: UACUAGA
The “RNAcompete 7-mer binding Z-score” value of the first is higher: 0.993 for the first, -0.42 for the second.

Going from CCCAGGC to CACCGCC, the “RNAcompete 7-mer binding Z-score” value falls from -0.555 to -0.701.

Going from UGAAUUG to CUCCCAA, the “RNAcompete 7-mer binding Z-score” value falls from 0.268 to -0.759.

Compared with UAGGACU, UUUCGUG is lower in “RNAcompete 7-mer binding Z-score” value: 0.202 for the first, -0.398 for the second.

Going from UAUUAAC to CCGACGC, the “RNAcompete 7-mer binding Z-score” value rises from -0.613 to -0.46.

Going from ACAACUG to ACCCCUU, the “RNAcompete 7-mer binding Z-score” value falls from -0.449 to -0.795.

Going from CGGACAU to AAAUCGC, the “RNAcompete 7-mer binding Z-score” value falls from 0.17 to -0.781.

Going from GUCUAGG to CGAGCCC, the “RNAcompete 7-mer binding Z-score” value falls from 0.352 to -0.697.

Going from GGUAGCC to GAACCUA, the “RNAcompete 7-mer binding Z-score” value falls from 0.552 to -0.675.

Compared with GCGUGCC, CAACCGU is lower in “RNAcompete 7-mer binding Z-score” value: -0.267 for the first, -0.577 for the second.

Going from CCCCACC to UUGGACA, the “RNAcompete 7-mer binding Z-score” value rises from -0.431 to 0.417.

First: AUGGUGA
Second: CCUUGCC
The “RNAcompete 7-mer binding Z-score” value of the first is higher: 2.09 for the first, -0.89 for the second.

Compared with GGUUCAG, GAGUUGA is higher in “RNAcompete 7-mer binding Z-score” value: 0.752 for the first, 0.763 for the second.

Compared with UUAGUUU, CGUGCGC is higher in “RNAcompete 7-mer binding Z-score” value: -0.242 for the first, -0.18 for the second.

First: CACAUGG
Second: UAGGCUA
The “RNAcompete 7-mer binding Z-score” value of the first is higher: 0.793 for the first, 0.392 for the second.

Compared with AAACUUA, GUCCCGU is higher in “RNAcompete 7-mer binding Z-score” value: -0.686 for the first, -0.358 for the second.

First: UACAAGA
Second: AAUAGGU
The “RNAcompete 7-mer binding Z-score” value of the first is lower: -0.216 for the first, 1.27 for the second.

Going from AUCUCCG to UGUCACU, the “RNAcompete 7-mer binding Z-score” value falls from -0.806 to -0.843.

Going from GCGAUUC to CUACGCG, the “RNAcompete 7-mer binding Z-score” value rises from -0.621 to -0.439.

Compared with CUCAUAU, GCUCAAU is higher in “RNAcompete 7-mer binding Z-score” value: -0.832 for the first, -0.475 for the second.

First: AUGCUCC
Second: AGGGGAU
The “RNAcompete 7-mer binding Z-score” value of the first is lower: -0.799 for the first, 3.41 for the second.

First: AGAGCGG
Second: GAUAGCG
The “RNAcompete 7-mer binding Z-score” value of the first is higher: 1.46 for the first, 0.938 for the second.

Compared with GAAUCUG, UCGGCGG is higher in “RNAcompete 7-mer binding Z-score” value: -0.632 for the first, 0.388 for the second.

Going from AAGUCGA to CAGGCAU, the “RNAcompete 7-mer binding Z-score” value rises from -0.205 to 0.264.

Compared with CCAGCGU, GGACCCA is higher in “RNAcompete 7-mer binding Z-score” value: -0.5 for the first, -0.202 for the second.

Going from UAUAAGC to CUGUCAC, the “RNAcompete 7-mer binding Z-score” value falls from -0.442 to -0.857.

Going from CAUAACC to GAUAUGA, the “RNAcompete 7-mer binding Z-score” value rises from -0.744 to 0.643.

Compared with GUUCGCC, ACAAGAG is higher in “RNAcompete 7-mer binding Z-score” value: -0.544 for the first, 0.763 for the second.

First: AGGGCCG
Second: UUAGGUA
The “RNAcompete 7-mer binding Z-score” value of the first is lower: 0.683 for the first, 1.01 for the second.

Going from AGGCCAC to ACACGCU, the “RNAcompete 7-mer binding Z-score” value rises from -0.595 to -0.581.

Compared with CUAUUCU, GGGCGGC is higher in “RNAcompete 7-mer binding Z-score” value: -0.821 for the first, 1.91 for the second.

First: UACCGGC
Second: AAGGUGA
The “RNAcompete 7-mer binding Z-score” value of the first is lower: -0.464 for the first, 3.62 for the second.

First: CUGUAAA
Second: UGGCUUC
The “RNAcompete 7-mer binding Z-score” value of the first is lower: -0.606 for the first, -0.537 for the second.

First: AAAUCUA
Second: UUUCAAA
The “RNAcompete 7-mer binding Z-score” value of the first is higher: -0.497 for the first, -0.537 for the second.

Compared with CGUAUUA, AGUCCGU is lower in “RNAcompete 7-mer binding Z-score” value: -0.369 for the first, -0.697 for the second.

Compared with AGGUACC, AAUGCGG is higher in “RNAcompete 7-mer binding Z-score” value: 0.101 for the first, 1.23 for the second.

Compared with AUCGUUG, GUAACGC is higher in “RNAcompete 7-mer binding Z-score” value: -0.522 for the first, -0.147 for the second.

Going from UAAGCUU to CUAGCAA, the “RNAcompete 7-mer binding Z-score” value rises from -0.661 to -0.632.

Going from ACUAUGA to CAACGGC, the “RNAcompete 7-mer binding Z-score” value rises from -0.482 to -0.0379.

First: CUUAAUU
Second: ACCGUUU
The “RNAcompete 7-mer binding Z-score” value of the first is higher: -0.836 for the first, -1.01 for the second.

Compared with AAAGCGA, GGUAGCA is higher in “RNAcompete 7-mer binding Z-score” value: 0.825 for the first, 1.62 for the second.
